Measurements published in a collection of fitness landscapes (doi:10.1016/j.celrep.2020.107928).
In all, about 81,000 sequences were measured (“one-hybrid fitness for binding NBS DNA”: median about -0.1, highest 2% from about 0.36 on). The list shows a part of the results.

B1: Caulobacter ParB omega fusion; a variant is named by its letters at X, in order, B8GW30 (parent)
chain: MESVVVGEPGMSEGRRGLGRGLSALLGEVDAAPAQAPGEQLGGSREAPIEILQRNPDQPRRTFREEDLEDLSNSIREKGVLQPILVRPSPDTAGEYQIVAGERAWRAAQRAGLKTVPIMVRELDDLAVLEIGIIENVQRADLNVLEEALSYKVLMEKFERTQENIAQTIGKSXSHVANXMRLLXLPDEVQSYLVSGELTAXHARAIAAAADPVALAKQIIEGGLSVRETEALARKAPNLSAGKSKGGRPPRVKDTDTQALESDLSSVLGLDVSIDHRGSTGTLTITYATLEQLDDLCNRLTRGI

Variants of: B1
Assay: one-hybrid fitness for binding NBS DNA (the Noc-binding site; scaled: cognate 1, non-cognate 0); higher = stronger binding
Conditions: with NBS DNA site
Outline: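 Fitness here means the log change in variant-to-wild-type read ratio between plasmids sequenced before and after selection. That scale was set so cognate equals 1 and non-cognate equals 0. The selection was a bacterial one-hybrid screen of Caulobacter ParB libraries, four specificity codons randomised, in E. coli USO carrying a HIS3 reporter with the site 19 bp from the promoter, grown 48 hours at 37°C on M9-minus-histidine with 0.1 mM IPTG and 5 mM 3-AT.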

Variant | one-hybrid fitness for binding NBS DNA
GFAL | ≤ 0.2
LSND | ≤ 0.2
DKGD | ≤ 0.2
GRPT | ≤ 0.2
VLTH | ≤ 0.2
LMIE | ≤ 0.2
KDYS | ≤ 0.2
RIQS | 0.349
QRLI | 0.251
PTQM | ≤ 0.2
EHPD | ≤ 0.2
DSAI | ≤ 0.2
AMLL | ≤ 0.2
QQNV | 0.258
VCAS | ≤ 0.2
CSSK | ≤ 0.2
MCDC | ≤ 0.2
RMRP | ≤ 0.2
GQTM | ≤ 0.2
YNGS | ≤ 0.2
IPSS | ≤ 0.2
SGQK | ≤ 0.2
GNTA | ≤ 0.2
PMKC | ≤ 0.2
QTPY | ≤ 0.2

Variant | one-hybrid fitness for binding NBS DNA
CKPD | ≤ 0.2
MHRG | ≤ 0.2
MYPV | ≤ 0.2
RTYW | ≤ 0.2
MKPG | ≤ 0.2
PKTS | ≤ 0.2
LQPY | ≤ 0.2
ACRM | ≤ 0.2
CIHT | ≤ 0.2
NALC | ≤ 0.2
QPAM | ≤ 0.2
RVWY | ≤ 0.2
PTED | ≤ 0.2
AGDQ | ≤ 0.2
SPMS | ≤ 0.2
ICMS | ≤ 0.2
DTSG | ≤ 0.2
IPVV | ≤ 0.2
ASMP | ≤ 0.2
MLTY | ≤ 0.2
DPRC | ≤ 0.2
ELGV | ≤ 0.2
NVTL | ≤ 0.2
RRDT | 0.755
QDRY | ≤ 0.2

Variant | one-hybrid fitness for binding NBS DNA
HVSA | ≤ 0.2
NTQR | ≤ 0.2
VFSK | ≤ 0.2
NIHT | ≤ 0.2
PRPW | ≤ 0.2
LHAI | ≤ 0.2
TRYW | ≤ 0.2
VNVH | ≤ 0.2
ILKR | 0.237
ALTN | ≤ 0.2
MGEC | ≤ 0.2
AYVI | ≤ 0.2
HTPL | ≤ 0.2
IIER | ≤ 0.2
RMEK | ≤ 0.2
QAWM | ≤ 0.2
VIGF | ≤ 0.2
VGPP | ≤ 0.2
TNHW | ≤ 0.2
RLWW | ≤ 0.2
QYSQ | ≤ 0.2
VLAN | ≤ 0.2
MVAQ | ≤ 0.2
PIEF | ≤ 0.2
LPFM | ≤ 0.2

Variant | one-hybrid fitness for binding NBS DNA
TLAD | ≤ 0.2
MVVR | ≤ 0.2
MPCL | ≤ 0.2
RNRV | ≤ 0.2
NRSL | ≤ 0.2
IVCD | ≤ 0.2
ESYN | ≤ 0.2
ESTK | ≤ 0.2
GVKC | ≤ 0.2
QGYF | ≤ 0.2
LNQS | ≤ 0.2
IWVC | ≤ 0.2
NCVF | ≤ 0.2
WMNS | ≤ 0.2
HAGH | ≤ 0.2
PMPV | ≤ 0.2
SDNV | ≤ 0.2
HDAL | ≤ 0.2
QTFT | 0.515
TRCD | ≤ 0.2
HMAT | ≤ 0.2
PLDR | ≤ 0.2
STHW | ≤ 0.2
RCYG | ≤ 0.2
PFDL | ≤ 0.2

Variant | one-hybrid fitness for binding NBS DNA
SYHA | ≤ 0.2
LPDY | ≤ 0.2
LWSP | ≤ 0.2
QQPP | ≤ 0.2
ELST | ≤ 0.2
QHIK | ≤ 0.2
SCFK | ≤ 0.2
EMPS | ≤ 0.2
LSSG | ≤ 0.2
PYIG | ≤ 0.2
SRWY | ≤ 0.2
NSMH | ≤ 0.2
PNTT | ≤ 0.2
RGPI | ≤ 0.2
RHCH | ≤ 0.2
QTGQ | 0.27
ADSD | ≤ 0.2
SFRR | ≤ 0.2
KHTR | ≤ 0.2
DSRG | ≤ 0.2
KDTN | ≤ 0.2
QIPC | ≤ 0.2
PHFK | ≤ 0.2
ILRC | ≤ 0.2
CLQA | ≤ 0.2

Variant | one-hybrid fitness for binding NBS DNA
PFPI | ≤ 0.2
GYMG | ≤ 0.2
YLIA | ≤ 0.2
ACSQ | ≤ 0.2
IISM | ≤ 0.2
PHVA | ≤ 0.2
YLRE | ≤ 0.2
ATLR | ≤ 0.2
DNTK | ≤ 0.2
KTLA | ≤ 0.2
ITNC | ≤ 0.2
AWWT | ≤ 0.2
YLTL | ≤ 0.2
ANQT | ≤ 0.2
AIHQ | ≤ 0.2
QFKS | 0.295
KNKP | ≤ 0.2
GRLV | ≤ 0.2
FQYG | ≤ 0.2
GEDR | ≤ 0.2
FLLI | ≤ 0.2
AFSG | ≤ 0.2
KNSF | ≤ 0.2
WRRW | ≤ 0.2
HGKT | ≤ 0.2

Variant | one-hybrid fitness for binding NBS DNA
RKWI | ≤ 0.2
HLER | ≤ 0.2
ASTR | ≤ 0.2
GMLN | ≤ 0.2
DPSD | ≤ 0.2
DYML | ≤ 0.2
APPW | ≤ 0.2
KRLK | ≤ 0.2
DLTE | ≤ 0.2
IKRG | ≤ 0.2
PICW | ≤ 0.2
HTEG | ≤ 0.2
HGSS | ≤ 0.2
CMLR | ≤ 0.2
TRAV | ≤ 0.2
DLSG | ≤ 0.2
YAEL | ≤ 0.2
CSCI | ≤ 0.2
FATY | ≤ 0.2
YHER | ≤ 0.2
PCQR | ≤ 0.2
KFRI | ≤ 0.2
TATA | ≤ 0.2
RIKI | ≤ 0.2
QRWK | 0.239

Variant | one-hybrid fitness for binding NBS DNA
NTRT | ≤ 0.2
LTGR | ≤ 0.2
FYCG | ≤ 0.2
VFRP | ≤ 0.2
ALDY | ≤ 0.2
NDQR | ≤ 0.2
DHKR | ≤ 0.2
QTWY | ≤ 0.2
QRWV | 0.21
GQTF | ≤ 0.2
MMHG | ≤ 0.2
FVTD | ≤ 0.2
TVLA | ≤ 0.2
TAGM | ≤ 0.2
YAVD | ≤ 0.2
GSKA | ≤ 0.2
VGPN | ≤ 0.2
QYWN | ≤ 0.2
KCYR | ≤ 0.2
MSKV | ≤ 0.2
